# According to the antibiotic and cytotoxicity screens of Wong et al. (2023):
# This is one part of the list.
# Tests used:
# [1] = system: HSkMC (human skeletal muscle cells); experiment: cytotoxicity call (relative viability < 0.9); conditions: 10 µM
# [2] = system: HepG2; experiment: cytotoxicity call (relative viability < 0.9); conditions: 10 µM
# [3] = system: S. aureus RN4220; experiment: growth inhibition call (relative growth <= 0.2); conditions: 50 µM
Compound,cytotoxicity call [1],cytotoxicity call [2],growth inhibition call [3]
C[C@@H]1CCCCO[C@@H](CN(C)C(=O)CCC(F)(F)F)[C@@H](C)CN([C@H](C)CO)C(=O)c2cc(NC(=O)Nc3ccccc3)ccc2O1,inactive,inactive,inactive
N=C(N)SC=CC(=O)O,inactive,inactive,inactive
CC(=O)N1CCN(C)CC1,inactive,inactive,inactive
CC[N+](C)(CC)Cc1ccccc1,inactive,inactive,inactive
O=C(CN1CCOCC1)N[C@@H]1CC[C@H](CCNS(=O)(=O)c2ccccc2F)O[C@@H]1CO,inactive,inactive,inactive
C[C@@H]1CCCCO[C@@H](CN(C)C(=O)NC2CCCCC2)[C@@H](C)CN([C@H](C)CO)C(=O)c2cc(NC(=O)CCCCCC(=O)Nc3ccccc3N)ccc2O1,inactive,inactive,inactive
Cc1ccc(S(=O)(=O)Nc2ccc3c(c2)C(=O)N([C@H](C)CO)C[C@H](C)[C@H](CN(C)C(=O)Nc2ccc4c(c2)OCO4)OCCCC[C@H](C)O3)cc1,inactive,active,inactive
COc1ccc(-c2cnc3c(c2)C(=O)N([C@H](C)CO)C[C@@H](C)[C@H](CN(C)C(=O)Cc2ccncc2)O3)cc1,inactive,inactive,inactive
CO[C@@H]1CN(C)C(=O)c2ccc(NC(=O)C3CCOCC3)cc2OC[C@H](C)N(Cc2cccnc2)C[C@H]1C,inactive,inactive,inactive
Cn1cnc(S(=O)(=O)N[C@H]2C=C[C@@H](CC(=O)Nc3ccccc3)O[C@H]2CO)c1,inactive,inactive,inactive
Cc1noc(C)c1NC(=O)N(C)C[C@@H]1Oc2ccc(NS(C)(=O)=O)cc2CC(=O)N([C@@H](C)CO)C[C@@H]1C,inactive,inactive,inactive
CC(C)CC#Cc1cnc2c(c1)C(=O)N([C@H](C)CO)C[C@@H](C)[C@@H](CN(C)S(=O)(=O)c1cn(C)cn1)O2,inactive,inactive,inactive
Cc1cc(C(=O)Nc2cccc3c2O[C@@H](CN(C)C(=O)NC2CCCCC2)[C@H](C)CN([C@@H](C)CO)C3=O)n(C)n1,inactive,inactive,inactive
C[C@H](CO)N1C[C@H](C)[C@H](CN(C)S(=O)(=O)c2ccc(F)cc2)OCCCC[C@H](C)Oc2ccc(NC(=O)Cc3ccccc3)cc2C1=O,inactive,inactive,inactive
CCCNC(=O)N1C[C@H](O)COC[C@@H]2O[C@H](CC(=O)N3CCOCC3)CC[C@H]21,inactive,inactive,inactive
C[C@@H]1CCCCO[C@@H](CN(C)Cc2ccc(C(=O)Nc3ccccc3N)cc2)[C@@H](C)CN([C@H](C)CO)C(=O)c2cc(NC(=O)Nc3cccc4ccccc34)ccc2O1,inactive,inactive,inactive
Cc1noc(C)c1NC(=O)Nc1ccc2c(c1)C(=O)N([C@@H](C)CO)C[C@@H](C)[C@@H](CN(C)C(=O)Nc1ccc3c(c1)OCO3)OCCCC[C@@H](C)O2,inactive,inactive,inactive
C[C@H](CO)N1C[C@H](C)[C@H](CN(C)CC2CC2)Oc2c(NS(=O)(=O)c3cccs3)cccc2C1=O,inactive,inactive,inactive
C[C@@H]1CN([C@H](C)CO)C(=O)c2cccc(NC(=O)c3cnccn3)c2O[C@@H]1CN(C)C(=O)Nc1ccc2c(c1)OCO2,inactive,inactive,inactive

Compound,cytotoxicity call [1],cytotoxicity call [2],growth inhibition call [3]
C[C@@H]1CCCCO[C@@H](CN(C)Cc2ccccc2)[C@@H](C)CN([C@H](C)CO)C(=O)c2cc(NS(=O)(=O)c3ccccc3)ccc2O1,inactive,inactive,inactive
C[C@@H]1CN([C@@H](C)CO)C(=O)c2cc(NC(=O)Cn3cnnn3)ccc2O[C@@H]1CN(C)Cc1ccc(C(F)(F)F)cc1,inactive,inactive,inactive
C[C@@H]1CCCCO[C@@H](CN(C)CC2CC2)[C@H](C)CN([C@@H](C)CO)C(=O)c2cc(NC(=O)Nc3ccc(C(F)(F)F)cc3)ccc2O1,inactive,inactive,inactive
C[C@H](CO)N1C[C@H](C)[C@@H](CN(C)Cc2ccc(Oc3ccccc3)cc2)Oc2c(NC(=O)C3CCCCC3)cccc2C1=O,active,active,inactive
COCC#Cc1cnc2c(c1)C(=O)N([C@H](C)CO)C[C@@H](C)[C@@H](CN(C)C(=O)CN1CCOCC1)O2,inactive,inactive,inactive
C[C@H]1CN([C@@H](C)CO)C(=O)c2cccc(NC(=O)Nc3ccc4c(c3)OCO4)c2O[C@@H]1CN(C)S(=O)(=O)c1cn(C)cn1,inactive,inactive,inactive
Cc1ccc(S[C@]2(C(=O)NCC(C)C)CC(=O)N(C3Cc4ccccc4C3)[C@@H]2c2ccc(CO)cc2I)cc1,inactive,inactive,inactive
Cc1cc(C)n(-c2n[nH]c(=S)n2N)n1,inactive,inactive,inactive
O=C(Nc1ccc2ccccc2c1)c1ccc(Cl)cc1Cl,inactive,inactive,inactive
CN(C)CC(=O)N1[C@@H]2Cn3c(ccc(-c4ccncc4)c3=O)[C@H]1[C@@H](C(=O)NC1CCC1)[C@@H]2CO,inactive,inactive,inactive
C[C@@H]1CN([C@@H](C)CO)C(=O)c2cc(NC(=O)Nc3ccc(F)cc3)ccc2O[C@@H](C)CCCCO[C@@H]1CN(C)C(=O)Nc1ccc2c(c1)OCO2,inactive,inactive,inactive
C[C@@H]1CN([C@H](C)CO)C(=O)CCCn2nncc2CO[C@@H]1CN(C)S(=O)(=O)c1ccc2c(c1)OCCCO2,inactive,inactive,inactive
C[C@@H]1CN([C@@H](C)CO)C(=O)Cc2cc(NC(=O)Nc3cccc4ccccc34)ccc2O[C@H]1CN(C)C(=O)Nc1ccc(F)cc1,inactive,inactive,inactive
Cc1noc(C)c1S(=O)(=O)N(C)C[C@@H]1Oc2ccc(N(C)C)cc2CC(=O)N([C@H](C)CO)C[C@@H]1C,inactive,inactive,inactive
C[C@H](CO)N1C[C@H](C)[C@@H](CN(C)S(=O)(=O)c2ccccc2)Oc2ccc(NS(C)(=O)=O)cc2CC1=O,inactive,inactive,inactive
C[C@H](CO)N1C[C@H](C)[C@H](CN(C)C(=O)Nc2cccc3ccccc23)Oc2ccc(NC(=O)Cn3cnnn3)cc2C1=O,inactive,inactive,inactive
Cc1ccccc1S(=O)(=O)N1C[C@H](O)COC[C@H]2O[C@@H](CC(=O)NCCc3ccncc3)CC[C@@H]21,inactive,inactive,inactive
Nc1nnc([C@H]2CCCO2)o1,inactive,inactive,inactive
Cc1noc(C)c1S(=O)(=O)Nc1ccc2c(c1)CC(=O)N([C@@H](C)CO)C[C@H](C)[C@H](CN(C)CC1CC1)O2,inactive,inactive,inactive

Compound,cytotoxicity call [1],cytotoxicity call [2],growth inhibition call [3]
CC(=O)N1[C@H](Cn2cncn2)C[C@H]2CN(C(N)=O)CC[C@H]21,inactive,inactive,inactive
CC(C)NC(=O)N(C)C[C@@H]1OCCCC[C@@H](C)Oc2ccc(NS(C)(=O)=O)cc2C(=O)N([C@@H](C)CO)C[C@H]1C,inactive,inactive,inactive
Cc1c(CN2CCN(C(=O)[C@H](C)O)CC2)sc2c(N3CCOCC3)nc(-c3cnc(N)nc3)nc12,active,active,inactive
C#CCCCCCCCCCCC[C@H](O)C[C@H](O)COC(C)=O.C=CCCCCCCCCCCC[C@H](O)C[C@H](O)COC(C)=O,inactive,inactive,inactive
C[C@@H]1CCCCO[C@@H](CN(C)S(=O)(=O)c2ccc(F)cc2)[C@@H](C)CN([C@@H](C)CO)C(=O)c2cc(NC(=O)Nc3ccc4c(c3)OCO4)ccc2O1,inactive,inactive,inactive
CC(C)[C@@H](N)c1nc2c([nH]1)CCCC2,inactive,inactive,inactive
O=C(N[C@H]1C=C[C@@H](CC(=O)N2CCOCC2)O[C@H]1CO)c1ccccn1,inactive,inactive,inactive
Cn1c[n+](NC(=O)c2ccc(C(=O)ON3C(=O)CCC3=O)cc2)cn1,inactive,inactive,inactive
CNC[C@H]1Oc2cc(C#CCN(C)C)ccc2S(=O)(=O)N([C@@H](C)CO)C[C@H]1C,inactive,inactive,inactive
C[C@@H]1CN([C@H](C)CO)C(=O)Cc2cc(NS(=O)(=O)c3ccccc3)ccc2O[C@H]1CN(C)S(C)(=O)=O,inactive,inactive,inactive
C[C@@H]1CN([C@@H](C)CO)C(=O)c2cccc(NC(=O)c3ccc(-c4nccs4)cc3)c2O[C@H]1CN(C)Cc1ccc(C(=O)O)cc1,inactive,inactive,inactive
CN(C)CC(=O)N[C@H]1C=C[C@H](CC(=O)O)O[C@H]1CO,inactive,inactive,inactive
C[C@@H]1CCCCO[C@@H](CN(C)Cc2ccc(Cl)c(Cl)c2)[C@H](C)CN([C@@H](C)CO)C(=O)c2cc(NC(=O)C3CCCCC3)ccc2O1,inactive,inactive,inactive
C[C@H](CO)N1C[C@H](C)[C@H](CN(C)C(=O)Nc2ccc3c(c2)OCO3)OCCCC[C@H](C)Oc2ccc(NC(=O)Nc3ccccc3)cc2C1=O,inactive,inactive,inactive
Cc1ccc(S(=O)(=O)Nc2ccc3c(c2)C(=O)N([C@H](C)CO)C[C@H](C)[C@@H](CN(C)C(=O)Nc2ccc(C(F)(F)F)cc2)OCCCC[C@@H](C)O3)cc1,inactive,inactive,inactive
O=C(C[C@@H]1C=C[C@@H](NC(=O)CN2CCOCC2)[C@H](CO)O1)NCCc1ccccc1,inactive,inactive,inactive
C[C@@H]1CN([C@H](C)CO)S(=O)(=O)c2ccc(C#CC(C)(C)O)cc2O[C@H]1CN(C)Cc1ccncc1,inactive,inactive,inactive
COc1ccc(S(=O)(=O)N(C)C[C@H]2Oc3ccc(N(C)C)cc3C(=O)N([C@@H](C)CO)C[C@@H]2C)cc1,inactive,inactive,inactive
COc1ccc(S(=O)(=O)Nc2cccc3c2O[C@@H](CN(C)S(C)(=O)=O)[C@@H](C)CN([C@@H](C)CO)C3=O)cc1,inactive,inactive,inactive
